In PubChem BioAssay AID1476 (National Center for Advancing Translational Sciences (NCATS), 2009):
Screen size: about 200,000 compounds; about 4,500 (2.2%) were called active. Inconclusive means that the source gave no clear call. Such entries were picked first, then a sample of the others. Calls come from the whole dose curve; as a rule, active = well fitted inhibition curve with a large enough effect; inconclusive = small, poorly fitted or top-dose-only effect, or effect the other way; inactive = flat fitted curve, though single readings scatter. Potencies of inconclusive entries are doubtful fits and often do not repeat.

Each compound was assayed against Cruzipain (Trypanosoma cruzi) (UniProt P25779) (assay: qHTS Assay for Promiscuous and Specific Inhibitors of Cruzain (without detergent)). Settings: purified cruzain, Z-FR-AMC fluorescence, no detergent.
Sequence of UniProt P25779 (P25779 whole entry, looked up): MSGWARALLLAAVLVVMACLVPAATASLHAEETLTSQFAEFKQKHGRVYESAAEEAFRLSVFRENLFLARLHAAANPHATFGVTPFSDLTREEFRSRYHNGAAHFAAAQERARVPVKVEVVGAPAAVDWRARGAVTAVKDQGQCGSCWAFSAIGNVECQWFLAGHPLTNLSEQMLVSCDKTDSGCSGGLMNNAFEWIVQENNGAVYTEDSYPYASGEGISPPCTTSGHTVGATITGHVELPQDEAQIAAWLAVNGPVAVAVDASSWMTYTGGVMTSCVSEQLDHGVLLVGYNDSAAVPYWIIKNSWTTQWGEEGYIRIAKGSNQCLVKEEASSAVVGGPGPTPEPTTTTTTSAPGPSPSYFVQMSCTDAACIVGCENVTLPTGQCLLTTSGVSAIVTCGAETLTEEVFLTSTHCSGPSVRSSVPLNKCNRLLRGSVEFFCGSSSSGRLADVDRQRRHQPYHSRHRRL
Method in brief: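 Purified cruzain at 1.5 nM, pre-incubated 15 min with compound at room temperature in 100 mM sodium acetate pH 5.5, 5 mM DTT, 0.00005% Triton X-100. Reaction started with 2 uM Z-FR-AMC; AMC fluorescence increase over 60 s gives rate.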
Note: nearly all actives have a fitted effect of over 40% in size.
Potency is the fitted concentration of half-maximal effect; tags give direction and shape of the fitted curve.
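Throughout, for max response, negative = inhibition: plate controls were enzyme without inhibitor for no effect and buffer without enzyme for full effect.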

Compound | Potency | max response, negative = inhibition
COc1cc(OC)cc(-c2cc3nc(C)c(CCC(=O)Nc4ccc(C(C)=O)cc4)c(C)n3n2)c1 | inconclusive: 3.16 µM [activator, single point] | –
COc1ccc(-c2csc(NC(=O)c3ccccc3NS(=O)(=O)c3ccc(C)cc3)n2)cc1 | inconclusive: 39.8 µM [inhibitor, single point] | –
COC(=O)[C@@]1(Cc2ccc(F)cc2)[C@H]2c3cc(C(=O)N(C)C)n(CCN4CCOCC4)c3C[C@H]2CN1C(=O)c1ccccc1 | inconclusive: 31.6 µM [activator, single point] | –
COc1cccc(N(C(=O)c2ccco2)C(C(=O)NC2CCCC2)c2ccc(N(C)C)cc2)c1 (stereo unspecified) | – | inactive: -11.3%
CC(=O)OCC1=C(C(=O)O)N2C(=O)[C@@H](NC(=O)Cc3cccs3)[C@H]2SC1 | inconclusive: 31.6 µM [activator, single point] | –
O=C1N/C(=N/Nc2ccccc2)S/C1=C\c1ccccc1 | inconclusive: 20 µM [inhibitor, single point] | –
CN(c1ccc(OCC(=O)Nc2nc3ccccc3s2)cc1)S(=O)(=O)c1ccccc1 | inconclusive: 2.51 µM [inhibitor, partial curve] | –
COc1ccc2c(c1)O[C@@H](c1ccc3c(c1)OCO3)[C@H](O)C2=O | – | inactive: -12.6%
CC1Cn2c(C(=O)NCc3cccc(Br)c3)cc3cccc(c32)S1 (stereo unspecified) | inconclusive: 31.6 µM [inhibitor, single point] | –
CCOc1ccc2nc(NC(=O)CSc3nc4c(c(=O)n(C)c(=O)n4C)n3CC)sc2c1 | inconclusive: 25.1 µM [activator, partial curve] | –
Cc1ccc(-c2cn(-c3ccccc3)c(SCC(=O)NC3CCS(=O)(=O)C3)n2)cc1C (stereo unspecified) | inconclusive: 39.8 µM [activator, single point] | –
COc1cc(OC)c2c(-c3cccc(-c4sccc4C(C)=O)c3)cc(=O)oc2c1 | inconclusive: 28.2 µM [inhibitor, single point] | –
COc1ccc(NS(=O)(=O)c2ccc(N3CCCC3)c(NC(=S)Nc3cccc(C)c3C)c2)cc1 | inconclusive: 39.8 µM [inhibitor, single point] | –
O=C(N/N=C/c1coc2ccccc2c1=O)c1cn(-c2ccccc2)nc1-c1ccccc1 | inconclusive: 39.8 µM [inhibitor, single point] | –
CCn1c2ccc(Cl)cc2c2nc3ccccc3nc21 | inconclusive: 39.8 µM [activator, single point] | –
Cc1cccc(N(Cc2cc3ccccc3[nH]c2=O)C(=O)c2cccc(Cl)c2)c1 | inconclusive: 31.6 µM [inhibitor, single point] | –
COc1ccc(C2CC(c3ccccc3)=NN2C(=O)CN2N=NC3C(=O)N(c4cccc(F)c4)C(=O)C32)cc1 (stereo unspecified) | inconclusive: 25.1 µM [inhibitor, single point] | –
Cc1ccc(N2CC(NC(=O)CCc3ccccc3)CC2=O)cc1C (stereo unspecified) | – | inactive: -6.65%
Cc1ccc(NC(=O)CC2Nc3cc(C)c(C)cc3NC2=O)c(C)c1 (stereo unspecified) | – | inactive: -13.5%
COc1ccc(S(=O)(=O)c2nnn(-c3ccccc3F)c2C)cc1 | – | inactive: -13.5%
COc1ccccc1CCn1c(N)c(C#N)c2nc3ccccc3nc21 | inconclusive: 39.8 µM [inhibitor, single point] | –

Compound | Potency | max response, negative = inhibition
C=CCOC(=O)C(C#N)c1nc2ccccc2nc1N1CCN(Cc2ccc3c(c2)OCO3)CC1 (stereo unspecified) | inconclusive: 39.8 µM [inhibitor, single point] | –
CCc1ccc(Sc2cc(C(=O)O)c3ccccc3n2)cc1 | – | inactive: 6.21%
Cc1occc1C(=O)NNC(=O)COc1ccc(Br)cc1Br | inconclusive: 39.8 µM [inhibitor, single point] | –
O=C(O)COc1ccccc1C1C2C(=O)N(c3ccc(F)cc3)C(=O)C2ON1c1ccccc1 (stereo unspecified) | inconclusive: 39.8 µM [activator, single point] | –
COc1ccc(CCNC(=S)NC(=O)c2ccccc2)cc1OC | inconclusive: 31.6 µM [activator, single point] | –
Cc1cccc2c1N(C(=O)CN1C(=O)c3ccccc3C1=O)C(C)(C)c1ssc(=S)c1-2 | active: 12.6 µM | –
CCc1ccc2c(c1)/C(=C/C(=O)c1cccs1)C(=O)N2 | inconclusive: 39.8 µM [activator, single point] | –
COc1ccc(CN2C(=O)c3ccccc3C(/C=N\OCc3ccc(F)cc3)C2=O)cc1 (stereo unspecified) | inconclusive: 25.1 µM [inhibitor, single point] | –
CCN(c1ccc(Cl)cc1)S(=O)(=O)c1nnc(NC(=O)c2ccccc2C)s1 | inconclusive: 39.8 µM [activator, single point] | –
COc1ccc(Cn2c(C)cc3c(c2=O)C(c2cccs2)C(C#N)=C(N)O3)cc1OC (stereo unspecified) | inconclusive: 31.6 µM [inhibitor, single point] | –
CCOc1cccc(CC(=O)NCc2ccc3c(c2)CCN3C(C)=O)c1OCC | – | inactive: 3.44%
Cc1ccc2[nH]cc(C(c3ccccc3)c3ccc(C)s3)c2c1 (stereo unspecified) | – | inactive: -23.5%
Cc1ccc2nc(-c3ccc(NC(=O)C(C)N4C(=O)c5ccccc5C4=O)cc3)sc2c1 (stereo unspecified) | inconclusive: 31.6 µM [inhibitor, single point] | –
CC1=C(C(=O)Nc2ccccc2)C(c2ccco2)C(C#N)=C(SCC(=O)Nc2cccc(C)c2C)N1 (stereo unspecified) | inconclusive: 39.8 µM [inhibitor, single point] | –
CCC(C)NC(=O)CSc1nc2n[nH]c(C)c2c(=N)n1-c1cc(Cl)ccc1C (stereo unspecified) | inconclusive: 31.6 µM [activator, single point] | –
CCCS(=O)(=O)N1CCN(Cc2ccncc2)CC1 | – | inactive: -9.17%
CCSc1nnc(NC(=O)CSc2nnc(CNC(=O)c3ccc(OC)cc3)o2)s1 | inconclusive: 39.8 µM [inhibitor, single point] | –
O=C(CC1Sc2ccccc2NC1=O)OCC(=O)N1CCc2ccccc21 (stereo unspecified) | inconclusive: 25.1 µM [inhibitor, single point] | –
Cc1c(NC(=O)C(C)OC(=O)c2cc(-c3cccc4ccccc34)nc3ccccc23)c(=O)n(-c2ccccc2)n1C (stereo unspecified) | inconclusive: 7.94 µM [activator, partial curve] | –
O[C@H]([C@H](O)[C@@H](O)c1nc2ccccc2[nH]1)[C@@H](O)c1nc2ccccc2[nH]1 | – | inactive: 4.74%
COc1ccc(-c2cc(C(=O)NCCc3ccccc3)c3c(-c4ccccc4)[nH]nc3n2)cc1OC | inconclusive: 39.8 µM [activator, single point] | –

Compound | Potency | max response, negative = inhibition
COc1cccc(NC(=O)CSC2=Nc3ccccc3C3=NC(CCC(=O)NCCc4ccccc4)C(=O)N23)c1 (stereo unspecified) | inconclusive: 39.8 µM [activator, single point] | –
Cc1ccc(-n2cc(C(=O)Oc3cccc(C)c3)c3ccccc3c2=O)cc1 | inconclusive: 31.6 µM [inhibitor, single point] | –
Cc1ccc(NC(=O)CN2CCN(S(=O)(=O)c3ccc(C(C)C)cc3)CC2)cc1F | inconclusive: 25.1 µM [activator, single point] | –
CCOC(=O)C1(C)C(C(=O)OC)=C(c2ccc(OC)cc2)c2ccccc2N1C(=O)OC (stereo unspecified) | inconclusive: 31.6 µM [activator, single point] | –
CCOCCCNC(=O)C1CCN(c2cc(C)nc3c(-c4ccc(OC)c(OC)c4)c(C)nn23)CC1 | inconclusive: 20 µM [activator, partial curve] | –
CCCOc1ccc(CN(C(=O)Cc2coc3ccc(CC)cc23)C2CCS(=O)(=O)C2)cc1 (stereo unspecified) | inconclusive: 12.6 µM [activator, partial curve] | –
CC(C)CC(NS(=O)(=O)c1ccc2c(c1)oc(=O)n2C)C(=O)NCc1ccccc1Cl (stereo unspecified) | – | inactive: -14%
O=C(Nc1nc(-c2ccncc2)cs1)C1c2ccccc2Oc2ccccc21 | inconclusive: 31.6 µM [inhibitor, single point] | –
CCC(=O)N1CCc2cc(S(=O)(=O)CCC(=O)N3CCN(c4ccc(Cl)cc4)CC3)ccc21 | inconclusive: 39.8 µM [activator, single point] | –
COc1ccc(NC(=O)c2c(NCc3sccc3C)sc3c2CCCC3)c(OC)c1 | – | inactive: -6.03%
CCN(CCO)Cc1csc2ccc(Br)cc12 | – | inactive: -1.24%
COc1ccc(Br)cc1/C=N/NC(=O)CNC(=O)/C=C/c1ccccc1 | inconclusive: 39.8 µM [inhibitor, single point] | –
CC(C)c1ccc(NC(=O)c2ccc3c(c2)CCN3S(=O)(=O)c2ccccc2)cc1 | inconclusive: 39.8 µM [inhibitor, single point] | –
O=C(COc1ccccc1)NCCc1nc2ccccc2[nH]1 | active: 1 µM | –
COc1cc(OC)cc(-c2cc3nc(C)c(CCC(=O)NCc4ccccc4)c(C)n3n2)c1 | inconclusive: 31.6 µM [activator, single point] | –
CCOc1ccccc1C(=O)NC1(C(F)(F)F)NC(=O)N(CCc2ccc(OC)c(OC)c2)C1=O (stereo unspecified) | inconclusive: 31.6 µM [activator, single point] | –
CC(C)C[C@@H]1NC(=O)[C@H](C(C)C)NC(=O)c2cc([N+](=O)[O-])cc(I)c2OCC[C@@H](C(N)=O)NC1=O | inconclusive: 39.8 µM [activator, single point] | –
O=C1CS/C(=N\C(=O)N2c3ccccc3Sc3ccccc32)N1 | inconclusive: 39.8 µM [inhibitor, single point] | –
Cc1nc2ccn(Cc3ccccc3)c(=O)c2cc1C(=O)N1CCN(c2ccccc2F)CC1 | inconclusive: 39.8 µM [activator, single point] | –
